Reference: the supplement of paper PMC4604168 (melanoma cell lines)
The list shows a part of the results. Many values rest on one well or one pass, so single values are uncertain.

Assays:
Test in all cases: cell count relative to DMSO control; melanoma cells; higher = more viable cells
Settings in all cases: library dose: standard library concentration; 72 h
A101D = system: A101D
A2058 = system: A2058
A375 = system: A375
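Note: cells treated in 1,536-well plates, then fixed and DAPI-stained, with nuclei counted from automated high-throughput microscope images.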

| Structure (SMILES) | cell count (A101D) | cell count (A2058) | cell count (A375) |
| --- | --- | --- | --- |
| Cc1cc(Nc2cc(N3CCN(C)CC3)nc(/C=C/c3ccccc3)n2)n[nH]1 + Cn1nnc2c(C(N)=O)ncn2c1=O [temozolomide] (first compound 0.2 µM, partner dose 10 µM) | 85.1% | 44.5% | 97.8% |
| Cc1cn(-c2cc(NC(=O)c3ccc(C)c(Nc4nccc(-c5cccnc5)n4)c3)cc(C(F)(F)F)c2)cn1 [nilotinib] + CC(=O)O[C@@]12CO[C@@H]1C[C@H](O)[C@@]1(C)C(=O)[C@H](O)C3=C(C)[C@@H](OC(=O)[C@H](O)[C@@H](NC(=O)OC(C)(C)C)c4ccccc4)C[C@@](O)([C@@H](OC(=O)c4ccccc4)[C@H]21)C3(C)C [Docetaxel] (first compound 1 µM, partner dose 0.0005 µM) | 49.2% | 8.71% | 61.9% |
| COc1ccc(C2=N[C@@H](c3ccc(Cl)cc3)[C@@H](c3ccc(Cl)cc3)N2C(=O)N2CCNC(=O)C2)c(OC(C)C)c1 [Nutlin-3] + Nc1cccc2c1CN(C1CCC(=O)NC1=O)C2=O [lenalidomide] (first compound 0.5 µM, partner dose 5 µM) | 67.3% | 122% | 93.1% |
